Results: paper PMC12136788
The other results are listed elsewhere or left out.

B1: chr4:97781865:97781866:+_ENSMUSG00000028565_ENSMUST00000075448|mus_mus|FALSE|FALSE (ssRNA)
RNA: GGGAGUUCUACAGUCCGACGAUCUUGACCUAAACUGCCUUGGUCGGUGUUGCAUUUGCUUCCUGCUUGAUGACAACGGAACUACAAUUUCCUGCUGCUUUCUGGACAAUGAAGCAUGAGCAGACCAGAACUUGGUGUACUGACCAACAGAGGAUUGAGCAUCA
B2: 31253383_31253503_2257_3pUTR_ENSMUSG00000047714_ENSMUST00000060188|mouse|control|control (ssRNA)
RNA: GGGAGUUCUACAGUCCGACGAUCAAUAAAAGCCAUUUCAUAUAUAUAAUAUACAGAAAUUAUUUUAAAAGUCUGUCAUAUAACAGAUUCAUUUGGUGCUACCAAAAACUUACGAUACAAAUAAACAACUACAAAGGGAACCAUCAACAGAGGAUUGAGCAUCA
B3: 24911413_24911533_639_3pUTR_ENSMUSG00000006476_ENSMUST00000102931|mouse|control|control (ssRNA)
RNA: GGGAGUUCUACAGUCCGACGAUCCUGGGCACUCUUUGGAGCCCUGGCGGCUUCCUGCCCAGCUUUGGCAGGGCCUGCUGAUGUCCUCCCGGCUGCUGCCUGGGCUGGCACGCAGGGGCUGGCUGUGGUGGUGAGGGUGCCGUUCAACAGAGGAUUGAGCAUCA
B4: chr8:133025090:133025091:+_ENSG00000132294_ENST00000254624|hu_hu|motif|central (ssRNA)
RNA: GGGAGUUCUACAGUCCGACGAUCAUAAACAUUAAUUGUAAUGGUUUUCCUUUACAUGCAAUACAUGCAUUUUAAAAUCACGGAGAAACACGAAAUUUUGUAGAGCAAAGUUUGUGUUUCACGUAAGUGCAAAUGAAUAUAUAUCAACAGAGGAUUGAGCAUCA
B5: chr1:54681892:54681893:+_ENSG00000116221_ENST00000360840|hu_hu|FALSE|FALSE (ssRNA)
RNA: GGGAGUUCUACAGUCCGACGAUCCCAGGCCAAAUUCUUGACACCCUCGUUACAGUCCAGGUCUGUGGUAUUCAGUUGAAACACUAGGAAAUGGAAGACACGUCCAUCCGUGCCCACGCUCUGCACCACCACGGGCUGCUCCAACAACAGAGGAUUGAGCAUCA
B6: chr6:30403744:30403745:+_ENSMUSG00000029775_ENSMUST00000068259|mus_hu|motif|central (ssRNA)
RNA: GGGAGUUCUACAGUCCGACGAUCUAGGAAAGUUGAUUCACUGAUUAUCUAUGGAUUUCAAUGAUCUGUGCUUUACUCUUGCGGCUGUGGAUAACCAAAGGUCACUGUUAACGUAUCUUUUGCUUAAAAAUGUUAAUAUGCUUACAACAGAGGAUUGAGCAUCA
B7: chr1:100342015:100342016:+_ENSG00000162688_ENST00000361915|hu_hu|FALSE|FALSE (ssRNA)
RNA: GGGAGUUCUACAGUCCGACGAUCAGAUUCUUCCAUGGAGAAGUCUAUCUCUUCAAAUGGGAAAGUAAAAUACCUGGUAACUAAAGGAUGCUUUCUAGUGACAGGUCCUAGUUUUGGACCAUGGCCAGCCAGUCGUUCAUAAAACAACAGAGGAUUGAGCAUCA
B8: chr12:95365269:95365270:-_ENSG00000184752_ENST00000327772|hu_hu|FALSE|FALSE (ssRNA)
RNA: GGGAGUUCUACAGUCCGACGAUCUCAUUGUCUUUACUUGUAAGGUGUUGAAGGUGGGAUCCACUCCUGAAUCUUCUUUCUAGUGGUAGAAUAAGGUACAUAUUGUUCUGGGGUGCCAGUCACGUUGAAUUUAUGGUUCGUCCACAACAGAGGAUUGAGCAUCA
B9: chr5:138643207:138643208:+_ENSG00000015479_ENST00000510056|hu_hu|FALSE|FALSE (ssRNA)
RNA: GGGAGUUCUACAGUCCGACGAUCCAUCCUUCCAAGAGAUGCUGGCAUACUUAAAGACUGGGUAGCAGCAGCAAGAAGGCCUAUUCCUGCCGCAGACAGGUCACGCCCAUGACCCUGUGAGUCCCUACUGAGAGAUGACUGCUGCAACAGAGGAUUGAGCAUCA
B10: chr6:29325759:29325760:+_ENSMUSG00000029767_ENSMUST00000031779|mus_mus|motif|central (ssRNA)
RNA: GGGAGUUCUACAGUCCGACGAUCAGAUGAGAAAACGGCUCAAGUGGUCCUCAAACCAAGAGCCCCCUCUGUACAUCCUUCGGUCCUUGAGGCAAAGCUCAAGCCCUGGUGAGCAGAGGCCUGGGAGAAGAGUGGUUUGCCUUCCAACAGAGGAUUGAGCAUCA
B11: 196581395_196581515_1956_CDS_ENSG00000196950_ENST00000359634|human|control|control (ssRNA)
RNA: GGGAGUUCUACAGUCCGACGAUCAUGAAUGGUAUGUAAUCCAUCACUGUGAGAAUGGUCUAUGAUUUUCUCCUCUUCUAUACAAAGGUAAUUUUUAGGAGGGGAUUCUUGUUGGCCUUCUAAAUCUGUCAGUUCAGUUUCAUUCAACAGAGGAUUGAGCAUCA
B12: chr17:57737884:57737885:+_ENSG00000141367_ENST00000269122|hu_hu|motif|central (ssRNA)
RNA: GGGAGUUCUACAGUCCGACGAUCAUUUCCCUGGGCAAAAAGAGCAUUAAAUUUCCGGGCAAAGAGUUCUUCAGCACCGGCGGAGUUAUUACGUACAGCCAUUCUCAGAGCCAAAUCAGGAUUUUGUAGAACAUUGGUGAUGUACAACAGAGGAUUGAGCAUCA
B13: chr12:46623017:46623018:-_ENSG00000111371_ENST00000398637|hu_mus|FALSE|FALSE (ssRNA)
RNA: GGGAGUUCUACAGUCCGACGAUCAAGGCCCAAGAUUCCACUGCCCAUGAUGGCGUUGCUCAGGUUAAAGACAGACAUUCCCAGGGAGGUUGUUCCUGGAAUAUACUCGUCGCAUUUCCUUUUCUCCAGAUGGCUGUUUGUGAGCAACAGAGGAUUGAGCAUCA
B14: 37438484_37438604_3191_3pUTR_ENSMUSG00000026915_ENSMUST00000028279|mouse|control|control (ssRNA)
RNA: GGGAGUUCUACAGUCCGACGAUCGACAAUCAGAGAGCGAGUUUUUAUGGGGAUCCUGUUGCUGCUUUAGAUUCUGAUAUCAAAGAAGAGGAAAGGAGACUCUUCAAGGAAUUCCAAAAAAAAAAAAAAACCUGCUAAUCAUCUCAACAGAGGAUUGAGCAUCA
B15: chr17:57759754:57759755:+_ENSG00000141367_ENST00000269122|hu_hu|motif|central (ssRNA)
RNA: GGGAGUUCUACAGUCCGACGAUCAUCAUAACAACGGUCACCAACUUGUUGGAUAUGAGCAUUAUUUGGUCCAUUGAUAAAUUCUUCGGACUCUGCAAGGCGGUUUGUUUUAGCCAGUGCGAAUAUCAGUUCUGUCUCCACAUACAACAGAGGAUUGAGCAUCA
B16: chr5:147795600:147795601:+_ENSG00000145868_ENST00000340253|hu_mus|FALSE|FALSE (ssRNA)
RNA: GGGAGUUCUACAGUCCGACGAUCACUCAGACCAACUCGAGCACAGCCCUUGGGUGGCUCACGGAACAUCUGGUCCAGAGAAAUAAAUUCCAGGCUGGGCAAUAAUUCAACAAACUGGCCAAAAGAAUCCAGCUUCAAAGCAUGCAACAGAGGAUUGAGCAUCA
B17: chr14:78894897:78894898:-_ENSMUSG00000022016_ENSMUST00000123853|mus_hu|FALSE|FALSE (ssRNA)
RNA: GGGAGUUCUACAGUCCGACGAUCUUUAAAUUUUAACAGUGGGUUUCUAAAAAGAAAACAGUAAAAUAAAAGAGGGAACAAACUGGCAAGGUUAAAGUACUCCCUUACACACACACACACACACACACACACACACACACACACCAACAGAGGAUUGAGCAUCA
B18: 153456635_153456755_558_3pUTR_ENSG00000109670_ENST00000281708|human|control|control (ssRNA)
RNA: GGGAGUUCUACAGUCCGACGAUCCCGCCCCCCCGGCCGGGGGGUGGUUGCCGAGCUUGGUUGGGGCCCCGGUUCAUACACUCCGGGGCAAGAUGCUACGGCCCCGGGCGGGUGGCCGAGUCGGCGGCAAGGCGAGGGACCCGGCAACAGAGGAUUGAGCAUCA
B19: chr6:38652254:38652255:-_ENSG00000124767_ENST00000373365|hu_hu|hu_hu_hu_mus_False|18_58 (ssRNA)
RNA: GGGAGUUCUACAGUCCGACGAUCCGAGAACUUCAUAGCAGGGAAGUCAAGCUUCUGCAGGAGGGUCAGUCCAAGAACUCUAGUAUAAAAAUCCAGGGACUUCUUAGGAUCCUUAAUUCGUAGCAUGGUUUGCUGCAGUAGAAACAACAGAGGAUUGAGCAUCA
B20: 46966873_46967914_508_3pUTR_ENSMUSG00000036568_ENSMUST00000040624|mouse|control|control (ssRNA)
RNA: GGGAGUUCUACAGUCCGACGAUCAAAAUUGAAUUAGAAUUGGCUGCAGAAUACCCUGCGUUCGUCACAUCAUCGCUGCCCGAUUUACUGCUAGGUCCGUGCAGAAAAUAGUUCAAUGCUUGUGGGUCUCCAAUAAGAUCGAGGCAACAGAGGAUUGAGCAUCA
B21: chr17:64801638:64801639:+_ENSG00000154229_ENST00000413366|hu_mus|hu_hu_hu_mus_False|18_108 (ssRNA)
RNA: GGGAGUUCUACAGUCCGACGAUCUAUAAAUACAUAUACAUAUGUACACAUAUAUAGUAAAACCCUAGUUAAACGUGUAAAGUAGCCAUUCAUUUUUAAAAUUACAUCUACAUUAAAAAAGUAAUCUAUCUGAUAGAGUGCCAGCAACAGAGGAUUGAGCAUCA
B22: chr7:149068622:149068623:-_ENSMUSG00000025139_ENSMUST00000001950|mus_hu|mus_mus_mus_hu_False|38_68 (ssRNA)
RNA: GGGAGUUCUACAGUCCGACGAUCGUGAGGCCUCUGAGUGUGGCUUGUGGUCUGUCCUGGGUUAGAGCUGCUGGUAACACGGAACAUACCAUCUAGAGAGGUUCUGCCCCGCCUGACACCUUCAUUCCCAAUGGAGAAGAAAUCCAACAGAGGAUUGAGCAUCA

biological target: T1, UNK ZnF1-3 (human, UniProt Q9C0B0 31-174); experiment: nsRBNS (natural sequence RNA bind-n-seq); RBNS binding buffer (assumed for nsRBNS): 25 mM Tris pH 7.5, 150 mM KCl, 3 mM MgCl2, 0.01% Triton X-100, 500 ug/ml BSA, 20 U/ml SUPERase-In, 4 C; UNK is unkempt and MSI1 is Musashi-1; names of the RNAs are library labels; protein concentration not given here; high values mean tight binding
T1 sequence: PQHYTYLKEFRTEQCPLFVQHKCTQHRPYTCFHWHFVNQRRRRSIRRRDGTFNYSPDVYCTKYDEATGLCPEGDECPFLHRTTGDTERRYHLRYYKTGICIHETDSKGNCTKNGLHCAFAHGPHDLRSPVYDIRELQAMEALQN

| Binder | binding signal [enrichment R] |
| --- | --- |
| B1 | 0.821 |
| B2 | 1.74 |
| B3 | 0.405 |
| B4 | 0.295 |
| B5 | 1.11 |
| B6 | 0.858 |
| B7 | 1.21 |
| B8 | 0.825 |
| B9 | 0.853 |
| B10 | 0.652 |
| B11 | 0.514 |
| B12 | 1.88 |
| B13 | 1.04 |
| B14 | 3.02 |
| B15 | 1.27 |
| B16 | 0.863 |
| B17 | 2.55 |
| B18 | 0.557 |
| B19 | 0.907 |
| B20 | 1.21 |
| B21 | 1.09 |
| B22 | 0.755 |
